Assay results as given in PubChem BioAssay AID1963576 (National Center for Advancing Translational Sciences (NCATS), 2024).
Out of some 46,000 compounds screened, about 60 (0.1%) were called active. Another 3% or so got no clear call; they are omitted. Calls come from the whole dose curve; as a rule, active = well fitted inhibition curve with a large enough effect; inconclusive = small, poorly fitted or top-dose-only effect; inactive = no such curve, though single readings can be large or run the other way. Some of the results follow.

Assay: Primary qHTS assay for Inhibitors of ovarian cancer metastasis using an organotypic tumor microenvironment (TME) model.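 For activity change, negative = inhibition: plate controls were DMSO wells for no effect and tomatine positive control wells for full effect.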 Note: nearly all actives have a fitted effect of over 65% in size.
Conditions: SKOV3ip1-GFP adhesion/invasion on 3D omental model, fluorescence; series mostly up to 45.8 µM; activity change, negative = inhibition: at the top concentration
Procedure, shortened: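 qHTS, 4-pt dose (0.36-46 umol/L); SKOV3ip1-GFP, 1,200 cells/well, no FBS; primary omental fibroblast/mesothelial co-culture 48 h pre-grown; 2 h RT + 16 h 37 C; PBS wash, 4% PFA; GFP count 488/509 nm.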

Activity change, negative = inhibition, inactive:
CCOc1cccc(C2c3c(oc4ccc(F)cc4c3=O)C(=O)N2c2cc(C)ccn2)c1 (configuration not stated) -4.61%
Cc1ccc2ncc(C(=O)c3ccc(C)c(C)c3)c(S(=O)(=O)c3ccccc3)c2c1 4.33%
CCCCC(F)(F)[C@@]1(O)CC[C@H]2[C@H](CC(=O)[C@@H]2CCCCCCC(=O)O)O1 9.64%
C[C@@H]1CCN(C(=O)CC#N)C[C@H]1N(C)c1ncnc2[nH]ccc12 -28.9%
CCN(CC)S(=O)(=O)c1nnc(NC(=O)c2ccc(C)cc2)s1 5.13%
COc1c(O)cc2c(c1O)[C@@H]1O[C@H](CO)[C@@H](O)[C@H](O)[C@H]1OC2=O -11.5%
CC1CCCCN1CCCNC(=O)Cn1ncc2c3ccccc3n(Cc3ccccc3)c2c1=O (configuration not stated) 2.76%
COc1ccccc1N1CCN(Cc2nc(-c3cc(OC)c(OC)c(OC)c3)no2)CC1 2.24%
COc1ccccc1C1C(C(=O)Nc2ccccc2)=C(C)Nc2nc(-c3ccccc3)nn21 (configuration not stated) -3.18%
O=C(Cn1ncc2c3ccccc3n(Cc3ccccc3)c2c1=O)NCCCN1CCCCC1 6.79%
COc1ccc(CCN2C(=O)CN(C3CCCCCC3)C(=O)C2c2ccc(Cl)cc2)cc1OC (configuration not stated) -6.35%
CCN(Cc1ccccc1)C(=O)c1cn(-c2cccc(OC)c2)c(=O)c2ccccc12 0.741%
Cc1ccc(Cl)cc1N1CCN(C(=O)CCc2nnc3n(C)c(=O)c4ccccc4n23)CC1 -0.205%
COc1ccc(CNC(=O)C(CC(C)C)NS(=O)(=O)c2ccc3c(c2)CCN3C(C)=O)cc1 (configuration not stated) 7.04%
COc1ccc(C(C)=O)c(O)c1 8.11%
COc1ccc(-c2cc(C(=O)Oc3ccc(C#N)cc3)no2)cc1 6.05%
COc1ccc(Nc2nnc(-n3nc(C)cc3C)c3ccccc23)cc1 -6.52%
O=S1(=O)c2ccccc2N(Cc2ccc(F)cc2)c2ccccc21 -9.78%
CCCc1cc(=O)[nH]c(SCc2nc(-c3ccccc3)no2)n1 5.21%
COc1ccc(-n2nc(C(N)=O)c3c2C(=O)N(c2ccc(N4CCCCC4=O)cc2)CC3)cc1 -29.2%
Cc1ccc(-c2noc(-c3cccnc3N(C)Cc3ccc(Cl)cc3)n2)cc1 -8.71%
COc1cccc(NCc2nnc3n2CCCCC3)c1 5.85%
CCCSCCCNC(=O)c1sc2nc(C)cc(C)c2c1-n1cccc1 6.17%
Cc1ccc(-c2nc(CS(=O)(=O)CC(=O)N3CCN(c4ccccc4)CC3)c(C)o2)cc1 3.7%
COc1cc(Br)cc2cc(S(=O)(=O)c3ccccc3)c(=O)oc12 -2.02%
COc1ccc(CNC(=O)c2cc3c(=O)n(Cc4ccc(OC)cc4)ccc3nc2C)cc1 -22.5%
CCOc1ccc(CNCCSc2nnnn2C)cc1 19.4%
Cc1ccc(-n2nc(C)c3c(C)c(CCC(=O)NCc4ccc(Cl)cc4)c(C)nc32)cc1 -0.342%
COc1ccc(-c2nc3ccccc3s2)cc1NC(=O)c1cccc(F)c1 -4.83%
COc1ccc(OCC(=O)Nc2cc(-c3nc4ccccc4o3)ccc2Cl)cc1 -1.66%
Cc1ccc2c(c1)c1c(c(=O)n(-c3cccc(Cl)c3)c(=O)n1CC(N)=O)n2C 2.6%
COc1cc(Nc2nc3c(S(=O)(=O)c4cccc(Cl)c4)nnn3c3ccsc23)cc(OC)c1 -2.91%
Cc1ccccc1OCCSc1nc2ccc(NC(=O)c3ccco3)cc2s1 8.92%
Cc1ccc(NC(=O)CSc2nc3nccnc3c(=O)n2CCc2c[nH]c3ccccc23)cc1C 7.38%
CCC(=O)N1CCc2cc(S(=O)(=O)NCCC(=O)Nc3ccc(C)cc3C)ccc21 0.218%
CC1CCc2noc(NC(=O)c3ccc([N+](=O)[O-])cc3)c2C1 (configuration not stated) -24.5%
Cc1ccc(NC(=O)CN2C(=O)c3ccccc3Sc3ccc(C(=O)N4CCOCC4)cc32)cc1C 7.97%
COc1ccccc1OCCNCC(O)COc1cccc2[nH]c3ccccc3c12 (configuration not stated) -13.6%
O=C1Nc2ccccc2C1Cc1ccc(Br)cc1 (configuration not stated) -5.37%
CCC(Sc1nc2ccncc2[nH]1)C(=O)Nc1cc(C)ccc1C (configuration not stated) -7.76%
Cc1ccc(CNC(=O)Cn2ccn(-c3ccc(F)c(F)c3)c(=O)c2=O)cc1 -14.9%
CC(=O)c1cccc(NC(=O)c2cc3sc(Cl)cc3n2C)c1 -13.2%
Oc1c(C(c2ccc(Cl)cc2Cl)N2CCN(Cc3ccccc3)CC2)sc2nc(-c3ccco3)nn12 (configuration not stated) 1.64%
CC(C)c1nc(CN(C)C(=O)N[C@H](C(=O)N[C@@H](Cc2ccccc2)C[C@H](O)[C@H](Cc2ccccc2)NC(=O)OCc2cncs2)C(C)C)cs1 -20.7%
CCOCCCNC(=O)C(c1ccc(Cl)cc1)N(Cc1ccc2c(c1)OCO2)C(=O)c1ccc(NC(C)=O)cc1 (configuration not stated) -2.52%
Cc1ccc(C2N3CC4(C)CN2CC(c2ccccc2)(C3)C4=O)cc1 (configuration not stated) 2.44%
COCCNC(=O)CCCn1c(SCc2ccccc2C)nc2c(sc3ccccc32)c1=O -0.649%
COC(=O)c1cc(NC(=O)Cn2ncc3c([nH]c4ccccc43)c2=O)cc(C(=O)OC)c1 -0.471%

outcome, inactive:
CC1CCN(c2nc3ccccc3nc2C(F)(F)F)CC1
CC1CN(C(=O)N2CCC(C(=O)NCc3ccco3)CC2)c2ccccc2O1 (configuration not stated)
CC(=O)N1CCc2cc(S(=O)(=O)NC(Cc3ccccc3)C(=O)Nc3cc(C)cc(C)c3)ccc21 (configuration not stated)
O=C(NCCOCCn1c(=O)oc2ccccc21)Nc1ccc(F)cc1F
CCOc1ccc(NC(=O)CN(c2ccc(C)cc2)S(=O)(=O)c2cccs2)cc1
CCc1ccc(C(=O)c2cn(CC(=O)Nc3cc(OC)cc(OC)c3)c3ccc(CC)cc3c2=O)cc1
CCc1cccc(C)c1Nc1c(-c2ccc(N(C)C)cc2)nc2cnccn12
CCOc1ccc(NC(=O)Cn2nc(CC)n3c(cc4sccc43)c2=O)cc1
COC(=O)c1ccccc1NC(=O)Cn1c(=O)n(-c2ccc(C)cc2)c(=O)c2ccccc21
CCCn1c(=N)c(C(=O)NCc2ccco2)cc2c(=O)n3cc(C)ccc3nc21
CCC(=O)Nc1ccc(-c2nc3ncccc3o2)cc1C
Cc1ccc(CNC(=O)c2ccc(N3Cc4ccccc4Oc4ncccc43)s2)cc1
CCOc1ccc(C(=O)Nc2ccc(C(=O)OCc3cc(=O)n4c(C)csc4n3)cc2)cc1
CCn1cc(/C=C(\NC(=O)c2ccccc2Cl)C(=O)NCCCn2ccnc2)c2ccccc21
